# Reference: PubChem BioAssay (NCATS)
# “And” between values parts separate entries of the source, which are not always exact repeats. Equal values may be shown once. The shares of active, inactive and inconclusive entries below differ from those in the screen. For part of these data: Where the call is inconclusive, the potency comes from a doubtful curve fit. The source made the active and inactive calls. Unless noted, the call rests on the fitted dose curve; in most records, active means well fitted curve in the direction sought with a large enough effect; inconclusive means small, poorly fitted or top-dose-only effect, or another doubt; inactive means no such curve, though single readings can be large; an effect the other way counts as inactive or inconclusive.
# Columns and labels:
# [1] = molecular target: Tyrosine-protein phosphatase non-receptor type substrate 1 (Homo sapiens) + Leukocyte surface antigen CD47 (Homo sapiens) (UniProt P78324+Q08722); assay: CD47-SIRPalpha protein protein interaction - Alpha assay qHTS validation (AID 1347059);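 further: bead proximity luminescence from CD47 binding SIRPalpha after compound preincubation with SIRPalpha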; further: potency means the concentration at half of the fitted maximal effect; on activity change, negative = inhibition: on the % scale 0 is the no-effect control and ±100 the full control effect
# Procedure, shortened: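 In PBS (pH 7.4) with 0.05% IGEPAL CA-630, compound is preincubated with biotin-Avi-SIRPalpha ectodomain before His-CD47 ectodomain and affinity beads are added. Light-protected room-temperature incubations; AlphaScreen readout.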
# [2] = Confirmatory qHTS for small molecule stabilizers of the endoplasmic reticulum resident proteome: Secreted ER Calcium Modulated Protein (SERCaMP) assay (AID 1508628); further: potency means the concentration at half of the fitted maximal effect; nearly all actives have a fitted effect of over 40% in size
# Procedure, shortened: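 Reporter secretion upon ER calcium depletion (100 nM thapsigargin, 4 h, 37C) is measured as medium luminescence with coelenterazine, after 16 h compound pretreatment of SH-SY5Y-GLuc-SERCaMP cells; primary at three concentrations up to 38.3 uM, follow-up at 11 (up to 76.6 uM).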
# [3] = Cell Viability qHTS for small molecule stabilizers of the endoplasmic reticulum resident proteome (AID 1508629); conditions: cell viability counter-screen, 100 nM thapsigargin for final 4 h;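 further: human SH-SY5Y neuroblastoma cells carrying the GLuc-SERCaMP reporter; compound exposure about 46 h in total before the viability read; on the % scale 0 is the no-effect control and ±100 the full control effect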
# [4] = molecular target: Phospholipid hydroperoxide glutathione peroxidase GPX4 (Homo sapiens) (UniProt P36969); assay: Primary qHTS Assay for Inhibitors of Recombinant Selenoprotein Glutathione Peroxidase 4 (GPX4) (AID 1845192); conditions: activity change, negative = inhibition: at 50 µM (top of the series) unless noted; further: on the % scale 0 is the no-effect control and ±100 the full control effect; nearly all actives have a fitted effect of over 65% in size
# Procedure, shortened: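 qHTS, GR-coupled: GPX4 200 nM + cpd 30 min RT → GSH 1 mM, NADPH 0.5 mM, GR 100 nM → CHP 0.5 mM start; fluor 340/450 at t0 and t15 min; no-enzyme wells as control.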
# [5] = Stat Signaling Pathway (AID 446; active means well fitted curve in either direction with a large enough effect, not every such curve was filed as active; inconclusive means small, poorly fitted or top-dose-only effect, or another doubt;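 further: ME-180 cervical cancer cells given 40 pM IL-6 alongside compound; SIE-controlled beta-lactamase reporter measured as 460/530 nm FRET emission ratio; top concentration of the series differs between compounds; on the % scale 0 is the no-effect control and ±100 the full control effect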); conditions: ME-180 SIE beta-lactamase reporter, IL-6 stimulated, 5 h; at 38 µM (top of the series)
# Procedure, shortened: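 Emission at 460 and 530 nm (excitation 405 nm) reports SIE-controlled beta-lactamase in ME-180 cells. Cells received compound with 40 pM IL-6 for 5 hrs at 37 C; data scaled between 300 pM IL-6 and 125 nM JAK-inhibitor controls.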
# [6] = molecular target: Peroxisome proliferator-activated receptor gamma (Homo sapiens) (UniProt P37231); assay: qHTS assay for small molecule antagonists of peroxisome proliferator-activated receptor gamma signaling (AID 588537; active means well fitted inhibition curve with a large enough effect in the signal ratio, with a control signal flat, not every such curve was filed as active; inconclusive means small, poorly fitted or top-dose-only effect, or effect the other way, or a change in a side signal; the % refers to the signal ratio;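 further: reporter cells co-stimulated with 50 nM rosiglitazone agonist during compound treatment; % of control where 0% means no effect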); conditions: HEK293 PPARg-UAS-bla, beta-lactamase ratio, antagonist mode; activity, negative = inhibition: at 76.8 µM (top of the series)
# Procedure, shortened: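 Compounds are tested as concentration series for inhibition of rosiglitazone-driven (50 nM) reporter expression in GeneBLAzer PPAR-gamma-UAS-bla HEK293 cells. After 16 h at 37 C, CCF4 substrate is added for 2 h at room temperature and blue/green fluorescence is measured.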
# [7] = qHTS of Nrf2 Activators: LOPAC Validation (AID 624149); further: potency means the concentration at half of the fitted maximal effect; on activation: 0% is about no effect
# Procedure, shortened: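 Cells (AREc32_Fluc) are plated at 1000 per well in OPTI-MEM containing 5% FBS and left overnight. Compounds are pinned in and incubated 24 hr at 37 deg C, and firefly luciferase is detected with Steady-Glo.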
# [8] = Counterscreen qHTS for small molecule stabilizers of the endoplasmic reticulum resident proteome: GLuc-NoTag assay (AID 1508627); further: potency means the concentration at half of the fitted maximal effect
# Procedure, shortened: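 Secreted GLuc lacking the SERCaMP modification is measured in SH-SY5Y cells exposed to compound for 19 h and then to thapsigargin (100 nM, 4 h) to deplete ER calcium; hits retested at 11 concentrations, up to 76.6 uM.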
# [9] = Cytometric Cell-Based qHTS for Inhibitors of the mTORC1 Signaling Pathway in MEF (Tsc2-/-, p53-/-) Cells (AID 2660); further: potency means the concentration at half of the fitted maximal effect
# Procedure, shortened: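 Cells are plated, treated with compound for 24 hrs at 37 degree Celsius, then fixed, blocked and immunostained for phospho-rpS6 Ser235/236. Propidium iodide counterstain follows. Per-well % positive cells is derived from the PI-normalized phospho-S6 signal.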
# [10] = molecular target: DNA polymerase III PolC-type (Bacillus subtilis (strain 168)) (UniProt P13267); assay: qHTS Validation Assay for the Inhibitors of DNA Replication in Gram-Positive Bacteria (AID 485295); further: potency means the concentration at half of the fitted maximal effect;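 on activity change, negative = inhibition: PicoGreen fluorescence of double-stranded DNA made on primed circular M13 template; 0% = DMSO wells and -100% = EDTA-quenched background wells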
# Procedure, shortened: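 Reconstituted B. subtilis Pol III holoenzyme (PolC, beta clamp, SSB, primase) preincubated with compound, then M13Gori single-stranded circular template with dNTPs/NTPs added; room temperature reaction. Stopped with EDTA/PicoGreen; dsDNA fluorescence read, EDTA as full-inhibition control.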
# [11] = Inducers of the Endoplasmic Reticulum Stress Response (ERSR) in human glioma: Validation (AID 504836); further: potency means the concentration at half of the fitted maximal effect
# Procedure, shortened: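 Stably transfected U87-MG human glioma cells carrying a GRP78-based luminescent sensor were seeded at 1000 cells/well, pin-dosed with compounds and incubated 16 h. Luciferase reagent was then added, and end-point luminescence was read after 10 min at room temperature.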
# [12] = test system: Zika virus NS2B-NS3 protease (unlinked); assay: Optimization of GU AMC qHTS for Zika virus inhibitors: Unlinked NS2B-NS3 protease assay (AID 1347151); further: nearly all actives have a fitted effect of over 80% in size; further: potency means the concentration at half of the fitted maximal effect
# Procedure, shortened: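 Noncovalent NS2B hydrophilic domain–NS3 protease complex (25 nM final) in 10 mM Tris-HCl pH 8.0, 0.01% Tween 20; AMC substrate, room temperature 15 min (~20% conversion); fluorescence change normalized, 4-parameter Hill fit.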
# [13] = AP1 Signaling Pathway (AID 357; active means well fitted curve in either direction with a large enough effect, not every such curve was filed as active; inconclusive means small, poorly fitted or top-dose-only effect, or another doubt;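 further: ME-180 reporter cells stimulated with EGF at its EC50 level; top concentration of the series differs between compounds; on the % scale 0 is the no-effect control and ±100 the full control effect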); conditions: ME-180 (cervical carcinoma) AP-1-bla reporter, EGF-induced, beta-lactamase ratio, 5 h; at 38 µM (top of the series)
# Procedure, shortened: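 Read-out was the 460nm/530nm emission ratio (excitation 405nm) after CCF4 loading for 2.5 hours at room temperature. Cells carried an AP-1-driven beta-lactamase reporter, were stimulated with EC50 EGF plus compound for 5 hours, and AC50 values came from titrations.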
# [14] = molecular target: Cytochrome P450 1A2 (Homo sapiens) (UniProt P05177); assay: p450-cyp1a2 (AID 410; calls by dose curve; further: potency means the concentration at half of the fitted maximal effect)
# Procedure, shortened: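 O-Demethylation of luciferin 6' methyl ether by human CYP1A2 is monitored as luciferase luminescence. Substrate sits at Km (100uM); enzyme is 20nM. Values are scaled to 57 uM furafylline as maximal inhibition.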
# [15] = test system: Zika virus NS2B-NS3 protease; assay: Primary screen GU AMC qHTS for Zika virus inhibitors (AID 1347154); further: nearly all actives have a fitted effect of over 70% in size; further: potency means the concentration at half of the fitted maximal effect
# Procedure, shortened: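 Unlinked Zika NS2B hydrophilic domain/NS3 protease domain noncovalent complex (25 nM final) in 10 mM Tris-HCl pH 8.0, 0.01% Tween 20, with AMC peptide substrate. Fluorescence (ex 340, em 450 nm) change over 15 min, room temperature; percent inhibition fitted to 4-parameter Hill equation.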
# [16] = molecular target: Rap guanine nucleotide exchange factor 4 (Homo sapiens) (UniProt Q8WZA2); assay: Confirmatory qHTS for antagonist of cAMP-regulated guanine nucleotide exchange factor 4 (EPAC2) (AID 1645885); further: potency means the concentration at half of the fitted maximal effect; nearly all actives have a fitted effect of over 25% in size
# [17] = qHTS of Trypanosoma Brucei Inhibitors: LOPAC Validation (AID 624147); further: potency means the concentration at half of the fitted maximal effect
# Procedure, shortened: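 TbPYK + substrate in 50 mM TEA pH 7.2, 100 mM KCl, 10 mM MgCl2, 0.05% BSA, 0.01% Tween-20; cpd pinned; ADP 130 uM final; 45 min RT; Kinase-Glo Plus 10 min; luminescence endpoint.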
# [18] = molecular target: 3',5'-cyclic-AMP phosphodiesterase 4B (Homo sapiens) (UniProt Q07343); assay: qHTS Assay for Inhibitors of PDE-IV (AID 607; active means well fitted activation curve with a large enough effect in the main read-out, with a control signal flat, not every such curve was filed as active; inconclusive means small, poorly fitted or top-dose-only effect, or effect the other way, or a change in a side signal; further: potency means the concentration at half of the fitted maximal effect); conditions: HEK293 ACTOne CNG channel cells, membrane potential fluorescence; activation (PDE inhibition): at 22.9 µM (top of the series)
# Procedure, shortened: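 The readout is membrane depolarisation from a cAMP-sensing CNG channel, detected with a potential dye at ex 535/em 590. Cells were HEK293-derived (endogenous PDE-IV) at 1000 cells/well, titrated up to 22.9 uM final.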
# [19] = molecular target: D(1A) dopamine receptor (Homo sapiens) (UniProt P21728); assay: HTS Assay for Allosteric Agonists of the Human D1 Dopamine Receptor: Primary Screen for Agonists (AID 488981); further: 0% is about no effect
# Procedure, shortened: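 Tetracycline-induced HEK293 T-REx cells force-coupled to calcium signalling were incubated overnight at 30 C and dye-loaded at room temperature. Calcium flux over 180 s after compound addition flagged agonists; a further 180 s read after EC20 dopamine flagged potentiators.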
# Tags describe the fitted curve by direction and shape.
# Chain of UniProt P05177 (P05177 whole entry, looked up): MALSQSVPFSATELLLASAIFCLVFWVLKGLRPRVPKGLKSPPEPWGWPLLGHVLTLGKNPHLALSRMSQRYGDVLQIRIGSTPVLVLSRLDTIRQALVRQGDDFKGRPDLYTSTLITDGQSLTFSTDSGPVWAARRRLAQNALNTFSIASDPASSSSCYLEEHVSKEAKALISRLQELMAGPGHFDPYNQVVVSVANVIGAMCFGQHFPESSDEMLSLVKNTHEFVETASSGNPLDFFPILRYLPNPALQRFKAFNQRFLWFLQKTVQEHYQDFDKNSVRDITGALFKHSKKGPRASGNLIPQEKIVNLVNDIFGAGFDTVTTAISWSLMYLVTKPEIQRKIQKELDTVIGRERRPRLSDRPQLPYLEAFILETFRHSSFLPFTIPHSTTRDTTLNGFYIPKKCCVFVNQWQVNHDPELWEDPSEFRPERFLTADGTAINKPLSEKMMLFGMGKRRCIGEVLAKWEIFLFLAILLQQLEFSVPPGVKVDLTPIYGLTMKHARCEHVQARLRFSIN
# Chain of UniProt P78324 (P78324 whole entry, looked up, the tested form may be a part): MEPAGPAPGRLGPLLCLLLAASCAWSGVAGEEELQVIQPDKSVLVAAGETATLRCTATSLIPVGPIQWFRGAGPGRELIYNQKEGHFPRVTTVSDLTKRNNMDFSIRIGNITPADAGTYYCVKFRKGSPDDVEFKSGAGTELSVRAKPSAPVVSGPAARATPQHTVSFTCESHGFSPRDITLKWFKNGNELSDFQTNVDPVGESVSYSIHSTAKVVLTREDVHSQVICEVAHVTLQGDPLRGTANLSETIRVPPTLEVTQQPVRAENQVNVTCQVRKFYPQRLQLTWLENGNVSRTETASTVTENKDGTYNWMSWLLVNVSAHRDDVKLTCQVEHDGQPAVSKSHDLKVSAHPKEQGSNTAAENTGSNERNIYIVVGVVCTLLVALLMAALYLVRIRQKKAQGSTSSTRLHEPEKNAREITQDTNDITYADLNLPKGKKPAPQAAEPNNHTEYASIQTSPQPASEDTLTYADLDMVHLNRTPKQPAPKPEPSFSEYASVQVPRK
# Chain of UniProt P78324 (Q08722 whole entry, looked up, the tested form may be a part): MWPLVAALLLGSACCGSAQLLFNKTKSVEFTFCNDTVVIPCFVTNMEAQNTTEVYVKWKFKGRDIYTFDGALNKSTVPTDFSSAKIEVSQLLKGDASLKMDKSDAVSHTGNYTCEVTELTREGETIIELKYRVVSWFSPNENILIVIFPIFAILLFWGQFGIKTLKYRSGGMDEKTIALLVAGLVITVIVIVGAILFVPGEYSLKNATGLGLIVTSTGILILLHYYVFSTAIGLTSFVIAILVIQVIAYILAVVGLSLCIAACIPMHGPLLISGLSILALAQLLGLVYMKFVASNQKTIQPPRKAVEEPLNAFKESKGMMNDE
# Chain of UniProt P13267 (P13267 whole entry, looked up): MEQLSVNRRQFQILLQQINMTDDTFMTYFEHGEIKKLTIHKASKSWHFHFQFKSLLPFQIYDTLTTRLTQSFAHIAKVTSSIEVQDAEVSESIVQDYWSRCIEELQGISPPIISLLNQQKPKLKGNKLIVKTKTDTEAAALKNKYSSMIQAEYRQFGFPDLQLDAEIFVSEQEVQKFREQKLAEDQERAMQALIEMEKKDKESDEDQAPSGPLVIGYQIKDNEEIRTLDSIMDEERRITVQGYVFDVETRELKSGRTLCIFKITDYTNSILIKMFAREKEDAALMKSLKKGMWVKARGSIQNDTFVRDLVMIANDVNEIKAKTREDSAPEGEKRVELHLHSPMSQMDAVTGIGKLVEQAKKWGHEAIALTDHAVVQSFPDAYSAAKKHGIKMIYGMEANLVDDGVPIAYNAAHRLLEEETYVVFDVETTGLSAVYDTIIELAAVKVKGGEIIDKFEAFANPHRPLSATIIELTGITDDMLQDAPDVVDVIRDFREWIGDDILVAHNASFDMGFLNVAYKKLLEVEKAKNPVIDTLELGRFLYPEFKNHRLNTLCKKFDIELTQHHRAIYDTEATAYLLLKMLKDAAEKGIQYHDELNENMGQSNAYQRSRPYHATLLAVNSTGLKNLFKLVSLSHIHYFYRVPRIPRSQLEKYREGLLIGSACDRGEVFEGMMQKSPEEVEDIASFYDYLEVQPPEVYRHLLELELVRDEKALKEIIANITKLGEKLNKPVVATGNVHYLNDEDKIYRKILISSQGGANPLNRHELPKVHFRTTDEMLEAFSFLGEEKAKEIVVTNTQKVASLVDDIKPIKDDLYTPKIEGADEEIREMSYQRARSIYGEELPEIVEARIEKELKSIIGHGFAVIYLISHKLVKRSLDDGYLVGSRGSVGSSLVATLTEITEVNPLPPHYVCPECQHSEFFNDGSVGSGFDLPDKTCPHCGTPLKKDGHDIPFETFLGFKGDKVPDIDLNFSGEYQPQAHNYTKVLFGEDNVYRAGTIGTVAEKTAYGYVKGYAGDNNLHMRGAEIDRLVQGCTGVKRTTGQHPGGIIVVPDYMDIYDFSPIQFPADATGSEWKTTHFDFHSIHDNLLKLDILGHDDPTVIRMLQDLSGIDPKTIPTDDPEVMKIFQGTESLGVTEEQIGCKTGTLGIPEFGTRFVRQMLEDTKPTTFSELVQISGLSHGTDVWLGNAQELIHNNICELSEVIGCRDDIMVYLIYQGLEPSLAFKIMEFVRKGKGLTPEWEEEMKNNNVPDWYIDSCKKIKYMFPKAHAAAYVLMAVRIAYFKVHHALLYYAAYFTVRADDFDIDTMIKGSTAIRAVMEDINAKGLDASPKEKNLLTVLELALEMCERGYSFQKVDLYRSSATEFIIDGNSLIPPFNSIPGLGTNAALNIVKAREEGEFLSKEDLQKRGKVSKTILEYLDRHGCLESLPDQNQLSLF
# Chain of UniProt Q07343 (Q07343 whole entry, looked up): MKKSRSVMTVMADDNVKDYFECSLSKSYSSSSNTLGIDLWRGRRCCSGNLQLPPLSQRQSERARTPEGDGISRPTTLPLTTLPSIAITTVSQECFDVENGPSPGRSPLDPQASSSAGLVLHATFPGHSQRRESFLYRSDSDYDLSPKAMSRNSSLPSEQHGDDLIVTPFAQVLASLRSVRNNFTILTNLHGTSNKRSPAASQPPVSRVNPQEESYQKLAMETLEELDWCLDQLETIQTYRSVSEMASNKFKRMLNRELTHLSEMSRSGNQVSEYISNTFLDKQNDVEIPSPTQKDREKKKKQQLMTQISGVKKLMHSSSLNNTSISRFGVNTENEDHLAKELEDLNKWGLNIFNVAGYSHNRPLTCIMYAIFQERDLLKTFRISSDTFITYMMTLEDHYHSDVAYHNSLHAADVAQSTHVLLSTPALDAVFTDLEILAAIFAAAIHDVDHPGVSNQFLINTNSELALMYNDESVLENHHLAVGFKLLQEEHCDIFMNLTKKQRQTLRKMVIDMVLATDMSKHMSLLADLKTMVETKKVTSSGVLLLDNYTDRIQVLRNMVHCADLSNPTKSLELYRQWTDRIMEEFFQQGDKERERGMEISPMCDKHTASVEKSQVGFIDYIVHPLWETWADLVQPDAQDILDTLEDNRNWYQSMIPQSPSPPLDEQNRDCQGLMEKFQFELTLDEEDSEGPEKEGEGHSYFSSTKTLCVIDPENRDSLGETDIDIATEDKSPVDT
# Chain of UniProt P37231 (P37231 whole entry, looked up): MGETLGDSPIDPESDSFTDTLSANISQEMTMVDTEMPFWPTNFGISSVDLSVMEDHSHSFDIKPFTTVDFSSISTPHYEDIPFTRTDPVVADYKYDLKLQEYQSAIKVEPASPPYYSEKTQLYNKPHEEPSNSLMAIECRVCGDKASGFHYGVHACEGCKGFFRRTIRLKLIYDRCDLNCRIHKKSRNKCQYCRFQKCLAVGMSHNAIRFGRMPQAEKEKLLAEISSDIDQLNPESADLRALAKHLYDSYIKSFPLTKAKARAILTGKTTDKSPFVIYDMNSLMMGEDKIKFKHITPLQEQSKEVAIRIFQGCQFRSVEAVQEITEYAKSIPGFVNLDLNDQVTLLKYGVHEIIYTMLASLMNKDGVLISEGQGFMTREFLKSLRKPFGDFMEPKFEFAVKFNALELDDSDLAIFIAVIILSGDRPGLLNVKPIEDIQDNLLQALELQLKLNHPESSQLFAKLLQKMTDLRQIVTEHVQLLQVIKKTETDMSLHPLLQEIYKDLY
# Chain of UniProt P36969 (P36969 whole entry, looked up): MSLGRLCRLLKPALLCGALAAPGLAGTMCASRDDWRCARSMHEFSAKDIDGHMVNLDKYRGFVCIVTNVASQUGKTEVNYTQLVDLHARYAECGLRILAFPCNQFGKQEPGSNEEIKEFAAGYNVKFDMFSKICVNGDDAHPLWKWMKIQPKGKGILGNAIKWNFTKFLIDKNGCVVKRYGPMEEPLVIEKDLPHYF
# Chain of UniProt P21728 (P21728 whole entry, looked up): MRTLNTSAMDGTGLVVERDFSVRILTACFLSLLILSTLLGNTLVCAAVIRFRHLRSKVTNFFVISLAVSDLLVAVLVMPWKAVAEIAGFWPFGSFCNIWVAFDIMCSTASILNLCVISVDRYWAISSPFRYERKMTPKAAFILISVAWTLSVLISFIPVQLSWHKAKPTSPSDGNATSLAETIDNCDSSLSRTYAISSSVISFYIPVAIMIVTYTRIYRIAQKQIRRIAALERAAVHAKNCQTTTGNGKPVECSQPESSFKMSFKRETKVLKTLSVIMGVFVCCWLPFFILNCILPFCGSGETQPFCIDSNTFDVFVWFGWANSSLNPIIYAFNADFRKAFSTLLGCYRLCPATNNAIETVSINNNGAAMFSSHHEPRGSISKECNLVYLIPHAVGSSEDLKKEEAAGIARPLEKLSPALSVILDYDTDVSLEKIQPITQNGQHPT
compound,measurement,setting,value
Fc1ccc(C(OCCCc2cnc[nH]2)c2ccc(F)cc2)cc1,Potency,[1],"inconclusive: 8.26 µM [inhibitor, partial curve]"
same,Potency,[2],"inconclusive: 39.8 µM [inhibitor, partial curve]"
same,max response,[3],inactive: -7.37%
same,Potency,[4],inactive
Cc1ccc(S(=O)(=O)NC(=O)NN2CCCCCC2)cc1,"activity, negative = inhibition",[5],inconclusive: 59.4% [activator]
same,Potency,[6],inactive
CN1CCCC1CCOC(C)(c1ccccc1)c1ccc(Cl)cc1 (stereo not drawn),Potency,[7],inactive
same,Potency,[8],"inconclusive: 28.2 µM [inhibitor, single point]"
same,Potency,[2],"inconclusive: 25.1 µM [inhibitor, full curve]"
Cn1ncc(S(=O)(=O)Cc2ccccc2)c(Br)c1=O,Potency,[9],"inconclusive: 5.21 µM [falling, single point]"
same,Potency,[7],"inconclusive: 20.6 µM [activator, single point]"
CCCCCCCCCCCCCCCCCC(=O)NCC(COP(=O)([O-])OCC[N+](C)(C)C)OCC (stereo not drawn),Potency,[10],"inconclusive: 26.7 µM [inhibitor, single point]"
same,Potency,[11],"inconclusive: 6.56 µM [activator, partial curve, poor fit]"
CCc1ccc2c(-c3cccc(Cl)c3)nc(=O)n(CC)c2n1,Potency,[12],active: 26.7 µM
O=c1[nH]c2cc([N+](=O)[O-])c([N+](=O)[O-])cc2[nH]c1=O,"activity change, negative = inhibition",[13],inactive: -3.93%
same,Potency,[14],inconclusive: 31.6 µM [decreasing]
Cn1c(=O)c2c(nc(/C=C/c3cccc(Cl)c3)n2C)n(C)c1=O,Potency,[15],"inconclusive: 2.38 µM [inhibitor, partial curve]"
CC(C)C[C@H](NC(=O)C1OC1C(=O)O)C(=O)NCCCCN=C(N)N (stereo partly drawn),Potency,[12],inactive
C#CCN1C(C)=C(C(=O)OC)C(c2cccc([N+](=O)[O-])c2)C(C(=O)OCC)=C1C (stereo not drawn),Potency,[16],active: 6.98 µM
NC(=O)C1=CN(C2OC(COP(=O)(O)OP(=O)(O)OC[C@H]3O[C@@H](n4cnc5c(N)ncnc54)[C@H](OP(=O)(O)O)[C@@H]3O)C(O)C2O)C=CC1 (stereo partly drawn),Potency,[1],inactive
same,Potency,[12],"inconclusive: 26.7 µM [inhibitor, single point]"
CNc1cc(NS(=O)(=O)c2ccc(N)cc2)nc(NC)n1,Potency,[17],"inconclusive: 23.9 µM [inhibitor, partial curve]"
same,Potency,[15],inactive
COc1ccccc1CNCCCCCCNCCCCCCCCNCCCCCCNCc1ccccc1OC,"activity, negative = inhibition",[5],inconclusive: -42.4% [inhibitor]
Cc1cc(NC(=O)Nc2ccc3c(ccn3C)c2)sn1,"activity, negative = inhibition",[5],inconclusive: -38% [inhibitor]
same,Potency,[11],"inconclusive: 5.85 µM [activator, single point]"
CC(=O)NNC(=O)N1Cc2ccccc2Oc2ccc(Cl)cc21,Potency,[14],inconclusive: 39.8 µM [decreasing] and inconclusive: 31.6 µM [decreasing]
same,"activity, negative = inhibition",[5],inconclusive: 0.0297% [activator]
same,Potency,[18],"inconclusive: 19 µM [activator, partial curve, poor fit]"
O=C(O)CC1CCCc2ccccc2C1O (stereo not drawn),Potency,[10],inactive
same,Potency,[19],inactive
C[C@@H](CN1CCC(Cc2ccccc2)CC1)[C@@H](O)c1ccc(O)cc1,Potency,[14],inconclusive: 39.8 µM [decreasing]
same,Potency,[18],"inconclusive: 15.1 µM [activator, partial curve, poor fit]"
